# Screen size: about 340,000 compounds; about 530 (0.16%) were called active. Inconclusive means that the source gave no clear call. Such entries were picked first, then a sample of the others. Cut-off read from the data, not from the text of the source: active = activity change below about -80%; inconclusive = between about -30% and that limit; inactive = weaker than that.
# Assay: Small Molecules that selectively kill Giardia lamblia: qHTS;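 note: parasites exposed to compound for two days anaerobically before the ATP read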
# Settings: Giardia lamblia trophozoite viability; at 7.66 µM; hits give low values
# In short: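 Compounds were tested on trophozoites seeded at 100 cells/well and held 48 hrs at 37 deg C anaerobically. An ATP-based luminescent kit measured the remaining live cells.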
# % is set by controls: 0 for no effect and ±100 for the full control effect.
row,SMILES,activity change
1,CC(C)OC(=O)CNc1n[nH]c(=S)[nH]c1=O,inactive: 5.41%
2,CCN(CC)S(=O)(=O)c1cc(NC(=O)CSCc2c(C)noc2C)ccc1C,inactive: -15.7%
3,Cc1ccc(C(=O)NN2C(=O)/C(=C/c3cn(C)c4ccccc34)SC2=S)cc1,inconclusive: -36.1% [inhibitor]
4,COc1ccc(C2=NOC(Cn3nc(C(=O)NCc4cccc(C(F)(F)F)c4)cc3-c3ccccc3)C2)cc1 (configuration not stated),inconclusive: -31.6% [inhibitor]
5,CC(C)CCNC(=O)C(C)N(Cc1ccc(F)cc1)C(=O)c1ccc(CN2CCOCC2)o1 (configuration not stated),inconclusive: -35.1% [inhibitor]
6,Oc1c(CNc2ccccc2)cc(COCc2ccccc2)c2cccnc12,inconclusive: -31.9% [inhibitor]
7,COc1ccc(NC(=O)c2cccnc2Sc2ccccc2)c(OC)c1,inconclusive: -30.6% [inhibitor]
8,C(=C\c1ccccc1)/C=N/Nc1ccc2nncn2n1,inconclusive: -31.5% [inhibitor]
9,COc1ccc(N/N=C(\C#N)C(=N)SCc2ccccc2)cc1,inactive: -6.52%
10,O=C(O)CSc1c(O)c2ccccc2[nH]c1=O,inconclusive: -34.8% [inhibitor]
11,Cn1nc(-c2ccc(Cl)cc2)nc2c(=O)n(C)c(=O)nc1-2,active: -103%
12,O=C(NC(=S)Nc1cc([N+](=O)[O-])ccc1O)c1ccc2c(c1)OCO2,inconclusive: -41.6% [inhibitor]
13,CN(Cc1ccccc1)S(=O)(=O)c1cccc(C(=O)O)c1,inconclusive: -32.4% [inhibitor]
14,COc1ccc2c(c1)C(=NNc1ccc(C(=O)O)cc1)c1cc(OC)ccc1-2,inactive: -5.72%
15,Cc1ccc(C(C(=O)NC2CCCCC2)N(Cc2ccccc2)C(=O)Cc2c[nH]c3ccccc23)o1 (configuration not stated),inactive: 16.3%
16,COC(=O)CSc1ccc(S(=O)(=O)N2CCCCCC2)cc1[N+](=O)[O-],inactive: 3.64%
17,Cc1nc(-c2ccccn2)nc(N(C)c2ccccc2)c1Cl,inconclusive: -33% [inhibitor]
18,CCOC(=O)Cn1cnc2c(nnn2-c2ccccc2)c1=O,inconclusive: -30.2% [inhibitor]
19,O=C(NCC1CCCO1)c1ccc(Oc2ccc([N+](=O)[O-])cc2Cl)cc1 (configuration not stated),inconclusive: -39.2% [inhibitor]
20,Cc1ccc(-c2nc3ccccc3[nH]c2=O)cc1,inconclusive: -32.2% [inhibitor]
21,N#C/C(=C(/O)CN1CCN(c2ccccc2F)CC1)c1nc(-c2ccc(Cl)cc2)cs1,inactive: 8.59%
22,CCCCCN(C(=O)CCC(=O)OC(C)C(=O)NCc1ccccc1)c1c(N)n(CCCC)c(=O)[nH]c1=O (configuration not stated),inconclusive: -37% [inhibitor]

# Reference: PubChem BioAssay AID540267 (National Center for Advancing Translational Sciences (NCATS), 2011)
